Paper PMC3718817 (2013)
These are yes or no findings as the source states them, for the method shown. For some assays here: Binding seen in cells or lysates may run through a third protein. Some results given as binding are weak or reduced against the parent protein; the word gives no strength. For some assays here: Sequences can lack the tags named with a protein.

Amino acid sequences for entries named in this document (tags omitted).
UniProt P38873: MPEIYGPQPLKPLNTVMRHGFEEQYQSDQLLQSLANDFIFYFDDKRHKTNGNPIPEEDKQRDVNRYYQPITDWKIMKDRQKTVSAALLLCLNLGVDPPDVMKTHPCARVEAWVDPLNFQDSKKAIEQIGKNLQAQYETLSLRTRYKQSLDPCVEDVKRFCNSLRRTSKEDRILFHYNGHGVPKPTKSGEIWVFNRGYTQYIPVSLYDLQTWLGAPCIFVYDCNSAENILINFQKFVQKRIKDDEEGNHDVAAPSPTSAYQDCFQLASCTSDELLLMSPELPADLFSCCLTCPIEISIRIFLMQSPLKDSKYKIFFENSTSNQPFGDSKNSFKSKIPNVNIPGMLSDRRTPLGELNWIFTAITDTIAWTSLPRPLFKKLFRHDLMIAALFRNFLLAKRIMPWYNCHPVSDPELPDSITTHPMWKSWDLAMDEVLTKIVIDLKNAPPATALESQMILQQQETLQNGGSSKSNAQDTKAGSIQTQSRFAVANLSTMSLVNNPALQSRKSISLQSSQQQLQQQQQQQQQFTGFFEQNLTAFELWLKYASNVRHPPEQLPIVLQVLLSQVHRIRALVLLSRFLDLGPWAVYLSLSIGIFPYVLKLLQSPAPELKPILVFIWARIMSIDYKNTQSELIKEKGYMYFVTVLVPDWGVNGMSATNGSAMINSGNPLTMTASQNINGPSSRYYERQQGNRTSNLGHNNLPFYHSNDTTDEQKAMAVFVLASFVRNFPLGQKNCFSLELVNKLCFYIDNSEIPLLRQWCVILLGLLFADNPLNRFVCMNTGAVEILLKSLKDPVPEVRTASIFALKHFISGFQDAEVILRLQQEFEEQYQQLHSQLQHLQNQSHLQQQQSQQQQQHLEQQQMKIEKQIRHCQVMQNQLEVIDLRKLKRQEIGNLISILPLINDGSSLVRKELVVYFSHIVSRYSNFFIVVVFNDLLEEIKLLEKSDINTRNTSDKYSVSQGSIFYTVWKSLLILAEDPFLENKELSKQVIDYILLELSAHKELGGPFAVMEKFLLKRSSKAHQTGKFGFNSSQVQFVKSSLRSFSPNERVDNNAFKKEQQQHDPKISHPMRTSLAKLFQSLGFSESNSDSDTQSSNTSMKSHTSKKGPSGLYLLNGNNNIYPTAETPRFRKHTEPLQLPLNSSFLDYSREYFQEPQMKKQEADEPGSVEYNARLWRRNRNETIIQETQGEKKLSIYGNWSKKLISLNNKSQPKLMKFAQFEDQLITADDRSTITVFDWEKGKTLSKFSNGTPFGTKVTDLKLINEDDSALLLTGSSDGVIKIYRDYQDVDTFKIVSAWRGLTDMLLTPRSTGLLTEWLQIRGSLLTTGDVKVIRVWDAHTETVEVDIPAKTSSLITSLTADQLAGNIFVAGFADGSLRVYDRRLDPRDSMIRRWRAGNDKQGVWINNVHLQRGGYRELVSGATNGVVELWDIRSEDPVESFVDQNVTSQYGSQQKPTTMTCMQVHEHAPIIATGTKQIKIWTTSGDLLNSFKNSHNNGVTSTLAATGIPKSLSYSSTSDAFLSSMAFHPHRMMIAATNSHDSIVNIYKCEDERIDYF
UniProt Q03940: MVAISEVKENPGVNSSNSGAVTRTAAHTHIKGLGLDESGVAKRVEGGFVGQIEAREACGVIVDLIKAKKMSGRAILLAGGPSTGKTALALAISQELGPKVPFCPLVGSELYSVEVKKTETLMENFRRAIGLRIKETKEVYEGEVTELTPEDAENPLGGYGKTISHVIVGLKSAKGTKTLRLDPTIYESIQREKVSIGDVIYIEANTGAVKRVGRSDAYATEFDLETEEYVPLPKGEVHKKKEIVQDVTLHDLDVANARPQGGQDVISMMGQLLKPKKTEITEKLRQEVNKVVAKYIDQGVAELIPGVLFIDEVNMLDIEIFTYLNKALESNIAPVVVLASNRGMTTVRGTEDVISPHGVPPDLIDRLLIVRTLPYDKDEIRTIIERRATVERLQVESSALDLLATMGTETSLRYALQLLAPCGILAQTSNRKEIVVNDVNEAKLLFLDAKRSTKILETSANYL
UniProt Q12464: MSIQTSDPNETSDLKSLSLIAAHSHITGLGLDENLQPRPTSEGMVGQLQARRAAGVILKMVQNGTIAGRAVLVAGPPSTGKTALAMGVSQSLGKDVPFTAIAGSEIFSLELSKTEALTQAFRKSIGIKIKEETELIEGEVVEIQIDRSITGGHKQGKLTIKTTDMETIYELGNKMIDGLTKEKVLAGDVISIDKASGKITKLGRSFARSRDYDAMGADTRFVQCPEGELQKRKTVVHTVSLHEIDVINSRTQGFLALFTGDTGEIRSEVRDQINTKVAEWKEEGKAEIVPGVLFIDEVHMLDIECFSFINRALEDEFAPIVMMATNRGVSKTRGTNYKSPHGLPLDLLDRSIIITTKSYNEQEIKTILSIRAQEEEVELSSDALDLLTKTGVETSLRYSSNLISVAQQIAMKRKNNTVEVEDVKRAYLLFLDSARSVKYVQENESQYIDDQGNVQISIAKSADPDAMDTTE
UniProt P32598: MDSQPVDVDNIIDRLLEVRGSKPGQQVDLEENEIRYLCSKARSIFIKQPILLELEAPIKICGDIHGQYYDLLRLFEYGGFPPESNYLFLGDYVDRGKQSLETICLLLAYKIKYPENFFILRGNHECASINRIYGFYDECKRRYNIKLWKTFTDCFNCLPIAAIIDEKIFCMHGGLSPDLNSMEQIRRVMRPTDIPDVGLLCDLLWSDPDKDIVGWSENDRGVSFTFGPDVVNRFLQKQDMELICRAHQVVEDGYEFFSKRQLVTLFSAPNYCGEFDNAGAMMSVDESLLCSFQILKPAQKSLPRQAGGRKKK

How the values were obtained:
[1] = target: T1, GST-Ahc1 (S. cerevisiae) (UniProt Q12433); assay: pull-down; GST fusion proteins affinity purified from crude extracts of yeast co-expressing HA3-Sds22 or HA3-Sds22-RM45 (galactose and CuSO4 induction); binding and washes with 250 mM NaCl; copurified protein detected by anti-HA immunoblot
T1 sequence: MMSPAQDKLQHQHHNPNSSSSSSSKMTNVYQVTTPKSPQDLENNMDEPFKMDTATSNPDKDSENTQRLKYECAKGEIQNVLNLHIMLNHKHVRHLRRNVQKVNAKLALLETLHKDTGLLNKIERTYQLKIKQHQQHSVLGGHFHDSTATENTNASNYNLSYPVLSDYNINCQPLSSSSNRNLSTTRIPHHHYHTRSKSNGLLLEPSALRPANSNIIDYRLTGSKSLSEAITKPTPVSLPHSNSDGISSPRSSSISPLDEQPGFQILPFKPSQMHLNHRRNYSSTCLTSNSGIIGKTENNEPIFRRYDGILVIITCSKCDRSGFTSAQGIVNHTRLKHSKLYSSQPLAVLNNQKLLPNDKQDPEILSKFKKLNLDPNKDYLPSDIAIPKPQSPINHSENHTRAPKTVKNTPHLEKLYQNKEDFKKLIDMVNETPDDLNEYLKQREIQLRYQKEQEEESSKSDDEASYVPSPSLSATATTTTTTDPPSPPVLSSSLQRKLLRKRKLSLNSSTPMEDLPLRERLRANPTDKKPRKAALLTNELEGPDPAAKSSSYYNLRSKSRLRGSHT

[2] = target: T2, GST-Bub3 (S. cerevisiae) (UniProt P26449); assay: as above
T2 sequence: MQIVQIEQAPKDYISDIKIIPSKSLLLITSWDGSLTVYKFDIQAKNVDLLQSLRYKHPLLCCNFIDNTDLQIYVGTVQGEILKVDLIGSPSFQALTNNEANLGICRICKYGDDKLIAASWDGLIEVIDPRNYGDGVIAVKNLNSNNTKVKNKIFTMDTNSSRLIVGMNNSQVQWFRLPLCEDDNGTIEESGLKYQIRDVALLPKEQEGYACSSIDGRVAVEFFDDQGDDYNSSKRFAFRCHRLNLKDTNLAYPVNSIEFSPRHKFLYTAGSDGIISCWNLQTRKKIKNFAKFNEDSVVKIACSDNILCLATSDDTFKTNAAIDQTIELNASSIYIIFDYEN

[3] = target: GST-Kog1 (S. cerevisiae) (UniProt P38873); assay: as above
[4] = target: T3, GST-Nop6 (S. cerevisiae) (UniProt Q07623); assay: as above
T3 sequence: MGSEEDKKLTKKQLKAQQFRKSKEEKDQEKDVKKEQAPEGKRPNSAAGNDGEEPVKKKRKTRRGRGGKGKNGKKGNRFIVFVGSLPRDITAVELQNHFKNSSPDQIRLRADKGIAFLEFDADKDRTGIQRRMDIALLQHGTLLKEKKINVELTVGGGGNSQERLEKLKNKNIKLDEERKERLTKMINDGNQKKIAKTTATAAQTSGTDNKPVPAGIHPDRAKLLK

[5] = target: GST-Rvb1 (S. cerevisiae) (UniProt Q03940); assay: as above
[6] = target: GST-Rvb2 (S. cerevisiae) (UniProt Q12464); assay: as above
[7] = target: T4, GST-Snf4 (S. cerevisiae) (UniProt P12904); assay: as above
T4 sequence: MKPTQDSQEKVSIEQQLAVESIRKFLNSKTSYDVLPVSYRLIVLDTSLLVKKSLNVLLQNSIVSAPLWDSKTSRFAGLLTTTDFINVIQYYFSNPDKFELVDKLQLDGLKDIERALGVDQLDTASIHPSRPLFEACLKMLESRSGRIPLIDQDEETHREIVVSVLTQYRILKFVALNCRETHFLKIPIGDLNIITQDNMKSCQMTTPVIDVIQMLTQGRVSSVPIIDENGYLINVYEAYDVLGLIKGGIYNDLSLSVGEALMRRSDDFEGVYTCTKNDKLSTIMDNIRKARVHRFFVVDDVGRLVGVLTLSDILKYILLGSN

[8] = target: T5, GST-Ygr130C (S. cerevisiae) (UniProt P53278); assay: as above
T5 sequence: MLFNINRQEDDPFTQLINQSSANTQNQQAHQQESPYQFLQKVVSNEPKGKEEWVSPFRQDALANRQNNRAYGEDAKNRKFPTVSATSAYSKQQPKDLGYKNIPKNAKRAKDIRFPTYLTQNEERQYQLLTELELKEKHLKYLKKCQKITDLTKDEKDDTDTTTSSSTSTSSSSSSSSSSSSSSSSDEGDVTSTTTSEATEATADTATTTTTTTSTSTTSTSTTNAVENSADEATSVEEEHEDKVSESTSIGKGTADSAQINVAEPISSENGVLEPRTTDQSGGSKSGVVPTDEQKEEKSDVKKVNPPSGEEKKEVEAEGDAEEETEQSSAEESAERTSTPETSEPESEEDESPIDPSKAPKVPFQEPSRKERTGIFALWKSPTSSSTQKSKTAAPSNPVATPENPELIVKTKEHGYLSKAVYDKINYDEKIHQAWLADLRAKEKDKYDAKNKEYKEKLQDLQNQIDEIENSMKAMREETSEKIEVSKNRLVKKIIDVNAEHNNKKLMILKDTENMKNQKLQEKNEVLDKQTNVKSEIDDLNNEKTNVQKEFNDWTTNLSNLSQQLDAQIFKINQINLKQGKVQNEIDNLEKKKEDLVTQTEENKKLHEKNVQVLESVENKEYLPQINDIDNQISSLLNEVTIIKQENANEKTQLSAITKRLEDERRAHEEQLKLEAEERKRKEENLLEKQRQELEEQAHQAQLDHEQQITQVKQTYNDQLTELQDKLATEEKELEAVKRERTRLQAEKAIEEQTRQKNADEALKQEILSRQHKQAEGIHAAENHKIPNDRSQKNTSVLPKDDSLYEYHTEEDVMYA

[9] = target: Gal4(1-147)-Glc7 (S. cerevisiae) (UniProt P32598); assay: two-hybrid; PJ69-4A with pAS1-GLC7 (Gal4 DNA-binding domain fusion) and Gal4AD-Sds22 fusions; β-galactosidase activity of three independent transformants

B1: HA3-Sds22 (protein, UniProt P36047 1-338)
chain: MDKNSVNKDSEEKDERHKIEVVDDTNPDFITADSELTQDLPDDVEVIDLVHLKIKSLEDLNLYRFKNLKQLCLRQNLIESISEVEVLPHDKIVDLDFYDNKIKHISSNVNKLTKLTSLDLSFNKIKHIKNLENLTDLENLYFVQNSISKIENLSTLKSLKNLELGGNKVHSIEPDSFEGLSNLEEIWLGKNSIPRLINLHPLKNLKILSIQSNKLKKIENLEELTNLEELYLSHNFITKIEGLEKNLKLTTLDVTSNKITSLENLNHLSNLTDIWASFNKIDQSFESLGENLSALSRLETIYLEGNPIQLENKTSYRRKLTMNLPPSLQKIDATYIRG
[1]
  binding: no binding
[2]
  binding: binds
[3]
  binding: binds
[4]
  binding: binds
[5]
  binding: binds
[6]
  binding: binds
[7]
  binding: binds
[8]
  binding: binds

B2: HA3-Sds22-RM45 (protein, UniProt P36047 1-338)
chain: MDKNSVNKDSEEKDERHKIEVVDDTNPDFITADSELTQDLPDDVEVIDLVHLKIKSLEDLNLYRFKNLKQLCLRQNLIGSISEVEVLPHDKIVDLDFYDNKIKHISSNVNKLTKLTSLDLSFNKIKHIKNLENLTDLENLYFVQNSISKIENLSTLKSQKNLELGGNKVHSIEPDSFEGLSNLEEIWLGKNSIPRLINLHPLKNLKILSIQSNKLKKIENLEELTNLEELYLSHNFITKIEGLEKNLKLTTLDVTSNKITSLENLNHLSNLTDIWASFNKIDQSFESLGENLSAISRLETIYLEGNPIQLENKTSYRRKLTMNLPPSLQKIDATYIRG
[1]
  binding: no binding
[2]
  binding: binds
[3]
  binding: binds
[4]
  binding: binds
[5]
  binding: binds
[6]
  binding: binds
[7]
  binding: binds
[8]
  binding: binds

B3: Gal4AD-Sds22 (protein, UniProt P36047 1-338)
chain: MDKNSVNKDSEEKDERHKIEVVDDTNPDFITADSELTQDLPDDVEVIDLVHLKIKSLEDLNLYRFKNLKQLCLRQNLIESISEVEVLPHDKIVDLDFYDNKIKHISSNVNKLTKLTSLDLSFNKIKHIKNLENLTDLENLYFVQNSISKIENLSTLKSLKNLELGGNKVHSIEPDSFEGLSNLEEIWLGKNSIPRLINLHPLKNLKILSIQSNKLKKIENLEELTNLEELYLSHNFITKIEGLEKNLKLTTLDVTSNKITSLENLNHLSNLTDIWASFNKIDQSFESLGENLSALSRLETIYLEGNPIQLENKTSYRRKLTMNLPPSLQKIDATYIRG
[9]
  binding: binds

B4: Gal4AD-Sds22 Δ81–171 (protein, UniProt P36047)
chain: MDKNSVNKDSEEKDERHKIEVVDDTNPDFITADSELTQDLPDDVEVIDLVHLKIKSLEDLNLYRFKNLKQLCLRQNLIESIEPDSFEGLSNLEEIWLGKNSIPRLINLHPLKNLKILSIQSNKLKKIENLEELTNLEELYLSHNFITKIEGLEKNLKLTTLDVTSNKITSLENLNHLSNLTDIWASFNKIDQSFESLGENLSALSRLETIYLEGNPIQLENKTSYRRKLTMNLPPSLQKIDATYIRG
[9]
  binding: binds

B5: Gal4AD-Sds22-S56am (domain or fragment, UniProt P36047 1-55)
chain: MDKNSVNKDSEEKDERHKIEVVDDTNPDFITADSELTQDLPDDVEVIDLVHLKIK
[9]
  binding: no binding

B6: Gal4AD-Sds22-RM45 (protein, UniProt P36047 1-338)
chain: MDKNSVNKDSEEKDERHKIEVVDDTNPDFITADSELTQDLPDDVEVIDLVHLKIKSLEDLNLYRFKNLKQLCLRQNLIGSISEVEVLPHDKIVDLDFYDNKIKHISSNVNKLTKLTSLDLSFNKIKHIKNLENLTDLENLYFVQNSISKIENLSTLKSQKNLELGGNKVHSIEPDSFEGLSNLEEIWLGKNSIPRLINLHPLKNLKILSIQSNKLKKIENLEELTNLEELYLSHNFITKIEGLEKNLKLTTLDVTSNKITSLENLNHLSNLTDIWASFNKIDQSFESLGENLSAISRLETIYLEGNPIQLENKTSYRRKLTMNLPPSLQKIDATYIRG
[9]
  binding: no binding
